Data from PubChem BioAssay (Tox21).
“And” between values parts separate entries of the source, which are not always exact repeats. Equal entries are not always repeated. A structure can be active in one record and inactive in another. The source made the active and inactive calls. A call without a number means that no potency is given here. Unless noted, calls come from the whole dose curve.

What was measured:
[1] = qHTS assay for small molecule disruptors of the mitochondrial membrane potential - cell viability (AID 720634);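 note: human HepG2 liver cancer cells; nearly all actives have a fitted effect of over 20% in size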
How it was run: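 Measuring cytotoxicity alongside mitochondrial potential, the screen quantified ATP by luminescence in HepG2 cells after 1 hr compound incubation and a 30 min room-temperature CellTiter-Glo step.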

[2] = A CellTox Green Cytotoxicity Assay to monitor cytotoxicity in HEK293 cells - 32 hour (AID 1224881; active = well fitted curve in the direction sought with a large enough effect in the repeat runs; inconclusive = weak or mixed curves; inactive = no such curve, though single readings can be large; an effect the other way counts as inactive or inconclusive; note: nearly all actives have a fitted effect of over 40% in size; note: potency is the fitted concentration of half-maximal effect)
How it was run: (§1)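 Seeding of HEK293 cells together with cytotoxicity dye preceded a 5 h incubation at 37 C/5% CO2. Test compounds in DMSO were then added and fluorescence monitored across 40 h.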

[3] = target: Thyrotropin receptor (Homo sapiens) (UniProt P16473); assay: qHTS assay to identify small molecule antagonists of the thyroid stimulating hormone receptor (TSHR) signaling pathway (AID 1259385); settings: TSHR-HEK293 cAMP HTRF, TSH-stimulated antagonist mode; activity change, negative = inhibition: at 92.4 µM (top of the series) unless noted; note: nearly all actives have a fitted effect of over 20% in size; note: potency is the fitted concentration of half-maximal effect
How it was run: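 TSHR-HEK293 cells (800/well) plated 18 h, then compounds with Ro20-1724 and TSH at 1.5 ng/mL final, 30 min at room temperature. cAMP quantified by HTRF (cAMP-d2/anti-cAMP-cryptate, 1 h); 15 concentrations in triplicate.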

[4] = qHTS assay for small molecule activators of the heat shock response signaling pathway - cell viability counter screen (AID 743209; active = well fitted curve in the direction sought with a large enough effect in the repeat runs; inconclusive = weak or mixed curves; inactive = no such curve, though single readings can be large; an effect the other way counts as inactive or inconclusive; note: potency is the fitted concentration of half-maximal effect; nearly all actives have a fitted effect of over 50% in size); settings: HSE-bla HeLa viability, CellTiter-Glo luminescence, 5 h; activity change, negative = cytotoxicity: at 62.6 µM (top of the series) unless noted
How it was run: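 Counter screen for cytotoxicity in HeLa HSE-bla reporter cells. Treatment was 5 h at 37 C; viability was detected by luminescent ATP assay (CellTiter-Glo) in the same wells as the beta-lactamase read.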

[5] = qHTS assay to identify small molecule antagonists of the TGF-beta/Smad signaling pathway (AID 1346924; active = well fitted inhibition curve with a large enough effect in the signal ratio in the repeat runs, not every such curve was filed as active; inconclusive = weak or mixed curves; the % refers to the signal ratio); settings: SBE-bla HEK293T, TGF-beta/Smad reporter, beta-lactamase ratio; activity, negative = inhibition: at 76.8 µM (top of the series) unless noted
How it was run: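 SBE-bla HEK 293T cells were plated overnight, then received compound in DMSO plus TGF-beta1 (added as a 0.25 ng/mL solution) and were incubated 5 h at 37 C. Beta-lactamase reporter activity was read after 2 h at room temperature with LiveBLAzer B/G FRET substrate (ex 405, em 460/530 nm).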

[6] = tested on: thyroid hormone receptor (rat, GH3 cells); assay: qHTS assay to identify small molecule agonists of the thyroid receptor (TR) signaling pathway (AID 743066); settings: GH3.TRE-Luc cells, TR agonist luciferase, 24 h; activation: at 83.9 µM (top of the series) unless noted; note: potency is the fitted concentration of half-maximal effect
[7] = target: Estrogen receptor (Homo sapiens) (UniProt P03372); assay: qHTS assay to identify small molecule agonists of the estrogen receptor alpha (ER-alpha) signaling pathway (AID 743075); settings: HEK293 ER-alpha-UAS-bla, beta-lactamase FRET ratio, 18 h; activation: at 70.1 µM (top of the series);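 note: HEK293 GripTite cells with ER-alpha and UAS-driven beta-lactamase reporter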; note: potency is the fitted concentration of half-maximal effect
[8] = target: Progesterone receptor (Homo sapiens) (UniProt P06401); assay: qHTS assay to identify small molecule agonists of the progesterone receptor (PR) signaling pathway (AID 1346784); settings: PR-UAS-bla HEK293T, beta-lactamase FRET ratio, 16 h; activation: at 92.4 µM (top of the series) unless noted; note: nearly all actives have a fitted effect of over 30% in size; note: potency is the fitted concentration of half-maximal effect
How it was run: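 PR-UAS-bla HEK 293T cells carrying a UAS-driven beta-lactamase reporter were seeded in medium with 2% charcoal-stripped FBS, preincubated 6 hr at 37C, then exposed to compounds in DMSO for 16 hr; agonism was read by LiveBLAzer B/G FRET fluorescence.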

[9] = qHTS assay for small molecule agonists of the antioxidant response element (ARE) signaling pathway - cell viability counter screen (AID 743203); settings: ARE-bla HepG2 viability, CellTiter-Glo luminescence, 16 h; viability change, negative = cytotoxic: at 73.3 µM (top of the series); note: nearly all actives have a fitted effect of over 55% in size
How it was run: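 Compounds in DMSO were pinned onto ARE-bla HepG2 cells plated 5 hrs earlier at 2,000 cells/well. Sixteen hours later at 37C/5% CO2, CellTiter-Glo was added and luminescence measured after 30 min at room temperature.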

[10] = Human pregnane X receptor (PXR) small molecule agonists, qHTS cell viability counter screen (AID 1346977; active = well fitted curve in the direction sought with a large enough effect in the repeat runs; inconclusive = weak or mixed curves; inactive = no such curve, though single readings can be large; an effect the other way counts as inactive or inconclusive; note: nearly all actives have a fitted effect of over 50% in size; note: potency is the fitted concentration of half-maximal effect)
How it was run: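 PXR-Luc HepG2 cells in medium with 5% charcoal-stripped FBS were pre-incubated 5hr, then exposed to compounds for 24hr at 37C. Viability was read in the same wells by CellTiter-Fluor fluorescence, reagent added after 23hr with a 1hr incubation.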

[11] = qHTS assay to identify small molecule agonists of the androgen receptor (AR) signaling pathway in the presence of an antagonist - cell viability counter screen (AID 1259379; active = well fitted curve in the direction sought with a large enough effect in the repeat runs; inconclusive = weak or mixed curves; inactive = no such curve, though single readings can be large; an effect the other way counts as inactive or inconclusive; note: nearly all actives have a fitted effect of over 25% in size; note: potency is the fitted concentration of half-maximal effect;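 for activity change, negative = cytotoxicity: MDA-kb2 human breast cancer cells carrying an MMTV luciferase reporter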)
How it was run: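 A CellTiter-Fluor read-out measured viability of MDA-kb2 reporter cells (MMTV promoter with AR and GR response elements). Treatment: nilutamide 3.0uM final with compounds at 15 concentrations, 16 hr, 37C, 0% CO2.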

[12] = qHTS assay to identify small molecule agonists of the TGF-beta/Smad signaling pathway (AID 1346859; active = well fitted activation curve with a large enough effect in the signal ratio in the repeat runs, not every such curve was filed as active; inconclusive = weak or mixed curves; the % refers to the signal ratio; note: potency is the fitted concentration of half-maximal effect)
How it was run: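 HEK 293T cells stably carrying a beta-lactamase reporter driven by the Smad binding element were seeded overnight, exposed to DMSO-dissolved compounds for 5 hr at 37 C, 5% CO2, then loaded with FRET substrate for 2 hr at room temperature.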

[13] = A CellTox Green Cytotoxicity Assay to monitor cytotoxicity in HEK293 cells - 16 hour (AID 1224888; active = well fitted curve in the direction sought with a large enough effect in the repeat runs; inconclusive = weak or mixed curves; inactive = no such curve, though single readings can be large; an effect the other way counts as inactive or inconclusive; note: nearly all actives have a fitted effect of over 35% in size; note: potency is the fitted concentration of half-maximal effect)
How it was run: as §1

[14] = target: Glucocorticoid receptor (Homo sapiens) (UniProt P04150); assay: qHTS assay to identify small molecule agonists of the glucocorticoid receptor (GR) signaling pathway (AID 720691; active = well fitted activation curve with a large enough effect in the signal ratio in the repeat runs, not every such curve was filed as active; inconclusive = weak or mixed curves, or effect the other way; inactive = no such curve, though single readings can be large or run the other way; the % refers to the signal ratio; note: potency is the fitted concentration of half-maximal effect); settings: GR-bla HeLa, beta-lactamase reporter ratio, 18 h; activation: at 62.4 µM (top of the series) unless noted
How it was run: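 Reporter read-out: fluorescence intensity following 2 h room-temperature LiveBLAzer B/G FRET substrate loading. Prior step: GR-bla HeLa cells held 4 h, then treated 18 h at 37 C.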

[15] = target: Bile acid receptor (Homo sapiens) (UniProt Q96RI1); assay: qHTS assay to identify small molecule agonists of the farnesoid-X-receptor (FXR) signaling pathway (AID 743220; active = well fitted activation curve with a large enough effect in the signal ratio in the repeat runs, not every such curve was filed as active; inconclusive = weak or mixed curves, or effect the other way; the % refers to the signal ratio); settings: HEK293T FXR-UAS-bla, beta-lactamase FRET ratio, 16 h; activation: at 62.6 µM (top of the series) unless noted
How it was run: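 Beta-lactamase reporter under UAS control in GeneBLAzer FXR HEK 293T cells (5000/well) measured with LiveBLAzer FRET substrate after 2 h at room temperature. Compound exposure lasted 16 h at 37C.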

[16] = qHTS assay to identify small molecule antagonists of the glucocorticoid receptor (GR) signaling pathway - cell viability counter screen (AID 720693; active = well fitted curve in the direction sought with a large enough effect in the repeat runs; inconclusive = weak or mixed curves; inactive = no such curve, though single readings can be large; an effect the other way counts as inactive or inconclusive; note: nearly all actives have a fitted effect of over 55% in size); settings: GR-bla HeLa viability, CellTiter-Glo luminescence, 18 h, with 5 nM dexamethasone present; viability change, negative = cytotoxic: at 58.5 µM (top of the series)
[17] = qHTS assay to identify small molecule antagonists of the estrogen receptor beta (ER-beta) signaling pathway - cell viability counter screen (AID 1259382; active = well fitted curve in the direction sought with a large enough effect in the repeat runs; inconclusive = weak or mixed curves; inactive = no such curve, though single readings can be large; an effect the other way counts as inactive or inconclusive; note: nearly all actives have a fitted effect of over 55% in size)
How it was run: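 Agonist-stimulated (1nM E2) ER-beta-UAS-bla HEK293T cells are incubated with library compounds for 16 hr at 37C. Cell viability is then assessed in the reporter-assay wells by adding CellTiter-Glo and reading luminescence after 30 min.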

[18] = A CellTox Green Cytotoxicity Assay to monitor cytotoxicity in HepG2 cells - 32 hour (AID 1224883; active = well fitted curve in the direction sought with a large enough effect in the repeat runs; inconclusive = weak or mixed curves; inactive = no such curve, though single readings can be large; an effect the other way counts as inactive or inconclusive; note: nearly all actives have a fitted effect of over 50% in size; note: potency is the fitted concentration of half-maximal effect)
How it was run: (§2)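 Nonlytic assay: viable cells exclude the dye, so fluorescence scales with cell death. HepG2 at 600 cells/well, compounds added after 5 h, signal read across 40 h.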

[19] = qHTS assay to identify small molecule phospholipidosis (PLD) inducers (AID 1259344; active = well fitted curve in the direction sought with a large enough effect; inconclusive = small, poorly fitted or top-dose-only effect, or another doubt; inactive = no such curve, though single readings can be large; an effect the other way counts as inactive or inconclusive; note: potency is the fitted concentration of half-maximal effect); settings: HepG2 phospholipidosis, LipidTOX Red imaging, 24 h; PLD induction: at 38.3 µM (top of the series) unless noted
How it was run: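 HepG2 cells, 900/well, treated with compound plus LipidTOX Red for 24 h at 37 C; amiodarone positive and DMSO negative controls. Fixed with paraformaldehyde/Hoechst, then high-content imaging scored LipidTOX pit count and integrated intensity per well and per cell.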

[20] = A CellTox Green Cytotoxicity Assay to monitor cytotoxicity in HepG2 cells - 8 hour (AID 1224890; active = well fitted curve in the direction sought with a large enough effect in the repeat runs; inconclusive = weak or mixed curves; inactive = no such curve, though single readings can be large; an effect the other way counts as inactive or inconclusive; note: nearly all actives have a fitted effect of over 45% in size)
How it was run: as §2
Tags give direction and shape of the fitted curve or compound fluorescence and quenching.

Chain of UniProt P06401 (P06401 whole entry, looked up): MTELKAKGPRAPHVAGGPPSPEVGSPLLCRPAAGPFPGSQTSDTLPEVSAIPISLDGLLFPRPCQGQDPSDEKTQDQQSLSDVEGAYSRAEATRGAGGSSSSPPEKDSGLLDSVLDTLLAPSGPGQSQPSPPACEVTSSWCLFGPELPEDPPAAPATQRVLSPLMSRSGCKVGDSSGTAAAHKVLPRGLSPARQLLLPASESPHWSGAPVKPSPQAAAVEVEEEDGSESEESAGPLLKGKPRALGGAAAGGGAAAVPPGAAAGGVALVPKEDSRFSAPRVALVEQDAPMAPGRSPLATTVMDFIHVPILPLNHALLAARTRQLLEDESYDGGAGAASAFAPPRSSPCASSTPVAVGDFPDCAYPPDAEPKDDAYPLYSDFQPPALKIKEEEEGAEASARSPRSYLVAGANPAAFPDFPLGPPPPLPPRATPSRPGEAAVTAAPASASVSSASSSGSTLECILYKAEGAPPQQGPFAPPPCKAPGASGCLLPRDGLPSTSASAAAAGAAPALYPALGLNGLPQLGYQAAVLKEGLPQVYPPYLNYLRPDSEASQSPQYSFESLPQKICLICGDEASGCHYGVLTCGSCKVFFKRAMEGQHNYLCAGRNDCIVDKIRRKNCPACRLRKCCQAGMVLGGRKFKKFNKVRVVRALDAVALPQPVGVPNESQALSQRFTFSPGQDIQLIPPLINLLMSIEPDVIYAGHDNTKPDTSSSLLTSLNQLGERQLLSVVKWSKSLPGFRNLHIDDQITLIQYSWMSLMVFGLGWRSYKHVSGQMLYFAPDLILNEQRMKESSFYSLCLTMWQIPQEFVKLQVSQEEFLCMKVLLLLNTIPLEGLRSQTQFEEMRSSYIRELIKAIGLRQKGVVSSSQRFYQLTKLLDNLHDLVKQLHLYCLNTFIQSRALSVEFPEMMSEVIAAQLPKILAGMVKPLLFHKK
Chain of UniProt Q96RI1 (Q96RI1 whole entry, looked up): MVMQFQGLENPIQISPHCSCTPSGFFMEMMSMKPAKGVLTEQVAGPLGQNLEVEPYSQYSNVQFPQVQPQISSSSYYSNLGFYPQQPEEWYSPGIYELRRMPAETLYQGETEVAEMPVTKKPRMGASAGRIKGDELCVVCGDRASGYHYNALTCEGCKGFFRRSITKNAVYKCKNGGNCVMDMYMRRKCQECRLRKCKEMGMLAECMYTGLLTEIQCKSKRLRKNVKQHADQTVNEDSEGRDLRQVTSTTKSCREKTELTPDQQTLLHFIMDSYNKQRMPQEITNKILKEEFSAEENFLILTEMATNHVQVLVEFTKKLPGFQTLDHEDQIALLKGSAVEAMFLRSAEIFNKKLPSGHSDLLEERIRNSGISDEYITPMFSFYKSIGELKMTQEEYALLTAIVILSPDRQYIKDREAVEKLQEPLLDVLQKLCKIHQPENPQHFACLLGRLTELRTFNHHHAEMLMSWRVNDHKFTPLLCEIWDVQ
Chain of UniProt P16473 (P16473 whole entry, looked up): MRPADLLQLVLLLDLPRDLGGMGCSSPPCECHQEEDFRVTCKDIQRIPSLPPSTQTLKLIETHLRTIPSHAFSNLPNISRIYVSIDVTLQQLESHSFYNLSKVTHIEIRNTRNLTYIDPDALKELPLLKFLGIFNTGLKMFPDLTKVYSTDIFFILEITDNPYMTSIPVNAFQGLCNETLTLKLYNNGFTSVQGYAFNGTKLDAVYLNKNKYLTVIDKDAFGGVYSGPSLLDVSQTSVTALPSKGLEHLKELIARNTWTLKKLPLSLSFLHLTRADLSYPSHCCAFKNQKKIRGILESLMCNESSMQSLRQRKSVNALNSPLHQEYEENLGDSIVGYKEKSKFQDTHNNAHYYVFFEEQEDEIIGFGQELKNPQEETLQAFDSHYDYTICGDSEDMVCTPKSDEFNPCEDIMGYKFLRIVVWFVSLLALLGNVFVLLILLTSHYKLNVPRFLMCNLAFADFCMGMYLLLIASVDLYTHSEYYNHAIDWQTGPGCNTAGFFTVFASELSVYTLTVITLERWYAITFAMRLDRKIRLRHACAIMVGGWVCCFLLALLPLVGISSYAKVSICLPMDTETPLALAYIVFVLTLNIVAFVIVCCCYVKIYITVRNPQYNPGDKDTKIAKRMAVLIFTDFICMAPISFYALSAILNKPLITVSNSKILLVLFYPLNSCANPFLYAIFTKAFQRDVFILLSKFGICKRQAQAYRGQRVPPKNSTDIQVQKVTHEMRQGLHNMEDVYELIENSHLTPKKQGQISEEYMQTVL
Chain of UniProt P03372 (P03372 whole entry, looked up): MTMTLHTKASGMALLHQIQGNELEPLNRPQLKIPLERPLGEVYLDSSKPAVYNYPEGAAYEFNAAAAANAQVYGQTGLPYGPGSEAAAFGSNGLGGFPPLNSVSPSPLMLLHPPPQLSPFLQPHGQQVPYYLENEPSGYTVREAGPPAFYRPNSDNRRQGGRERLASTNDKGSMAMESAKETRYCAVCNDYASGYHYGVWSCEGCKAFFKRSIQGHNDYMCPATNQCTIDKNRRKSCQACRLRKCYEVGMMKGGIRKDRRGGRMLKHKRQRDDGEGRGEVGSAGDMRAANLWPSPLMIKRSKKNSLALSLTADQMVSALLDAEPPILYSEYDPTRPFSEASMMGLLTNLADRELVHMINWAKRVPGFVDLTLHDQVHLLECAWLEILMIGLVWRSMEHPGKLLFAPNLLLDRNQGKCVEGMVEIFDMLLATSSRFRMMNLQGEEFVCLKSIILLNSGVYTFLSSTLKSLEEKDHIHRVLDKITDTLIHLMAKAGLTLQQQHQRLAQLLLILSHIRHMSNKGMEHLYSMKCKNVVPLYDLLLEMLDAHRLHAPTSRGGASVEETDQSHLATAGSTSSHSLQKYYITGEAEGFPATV
Chain of UniProt P04150 (P04150 whole entry, looked up): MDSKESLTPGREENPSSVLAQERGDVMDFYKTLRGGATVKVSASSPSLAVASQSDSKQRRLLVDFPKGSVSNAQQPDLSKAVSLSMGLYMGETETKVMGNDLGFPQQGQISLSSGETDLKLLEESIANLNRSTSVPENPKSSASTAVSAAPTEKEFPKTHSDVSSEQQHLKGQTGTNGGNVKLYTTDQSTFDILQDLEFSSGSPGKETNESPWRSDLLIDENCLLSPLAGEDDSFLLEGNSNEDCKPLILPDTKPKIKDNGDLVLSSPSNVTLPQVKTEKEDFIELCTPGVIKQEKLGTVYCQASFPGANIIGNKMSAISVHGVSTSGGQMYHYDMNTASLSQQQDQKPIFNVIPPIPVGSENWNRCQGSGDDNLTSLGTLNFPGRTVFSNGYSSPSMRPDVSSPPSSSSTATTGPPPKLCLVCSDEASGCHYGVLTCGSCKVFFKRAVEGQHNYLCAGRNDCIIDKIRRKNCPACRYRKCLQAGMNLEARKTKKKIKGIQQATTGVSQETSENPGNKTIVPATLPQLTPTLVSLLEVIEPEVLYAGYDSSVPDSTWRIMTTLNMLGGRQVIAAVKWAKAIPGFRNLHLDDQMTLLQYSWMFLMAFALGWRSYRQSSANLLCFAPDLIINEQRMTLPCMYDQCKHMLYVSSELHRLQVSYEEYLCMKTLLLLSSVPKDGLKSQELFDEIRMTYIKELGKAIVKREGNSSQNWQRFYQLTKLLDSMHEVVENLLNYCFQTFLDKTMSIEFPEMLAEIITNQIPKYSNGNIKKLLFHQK

COc1ccc2cc1Oc1cc3c(cc1OC)CC[N+](C)(C)[C@H]3Cc1ccc(cc1)Oc1c(OC)c(OC)cc3c1[C@@H](C2)[N+](C)(C)CC3
Potency [1]: inactive | Potency [2]: inactive

CC(C)(C)c1n[nH]c(=O)n(N)c1=O
Potency [3]: inactive

CCCC[N+](C)(CCCC)CCCC
Potency [4]: inconclusive: 60.4 µM [cytotoxic, partial curve, poor fit] | activity, negative = inhibition [5]: inconclusive: -8.52%

Cc1ccccc1OCC1CO1 (stereo not given)
Potency [6]: inactive | activity, negative = inhibition [5]: inconclusive: -10.3%

O=C(O)c1ccccc1S
Potency [2]: inconclusive: 0.0952 µM [activator, single point]

CC1(C)C(=O)N(Cl)C(=O)N1Cl
Potency [1]: inactive | Potency [7]: inconclusive: 1.1 µM [falling, full curve] | Potency [2]: inactive

N#Cc1ccc(C2CCCc3cncn32)cc1 (stereo not given)
Potency [3]: inconclusive: 0.0435 µM [rising, full curve, poor fit]

CC(C)c1ccc(C(C)C)cc1
Potency [7]: inconclusive: 7.91 µM [full curve]

CC(CN1CC(=O)NC(=O)C1)N1CC(=O)NC(=O)C1 (stereo not given)
Potency [8]: inactive

[K+]
Potency [6]: inactive | Potency [9]: inactive | Potency [10]: inconclusive: 27.3 µM [rising, single point]

CCCCNC1CC(C)(C)NC(C)(C)C1
Potency [11]: inconclusive: 30.6 µM [cytotoxic]

Cc1occc(=O)c1OC(=O)C(C)C
Potency [12]: inactive

Nc1ncnc2c1ncn2Cc1c(F)cccc1Cl
Potency [12]: inactive

CCCCCCCCCCCCCCCCCCN(C)C
Potency [2]: inconclusive: 26.8 µM [activator, partial curve, poor fit] | Potency [13]: inconclusive: 26.8 µM [activator, partial curve, poor fit] | Potency [11]: inactive

O=C1OC(=O)c2c(Cl)c(Cl)c(Cl)c(Cl)c21
Potency [9]: inactive

NCCc1ccn[nH]1
Potency [14]: inconclusive: 2.56 µM [falling, single point]

CCN(CC)C(=O)c1cccc(C)c1
Potency [7]: active: 21.3 µM [inconclusive] | activation [15]: inconclusive: 9.22% | Potency [10]: inactive

CC(=O)Nc1ccc(O)cc1
Potency [6]: inconclusive: 63.3 µM [activator, partial curve, poor fit]

CC1=CC(C)C(C=O)C(C)C1 (stereo not given)
activity change, negative = inhibition [3]: inconclusive: 11.8%

CN1C(CCl)Nc2cc(Cl)c(S(N)(=O)=O)cc2S1(=O)=O (stereo not given)
Potency [12]: inactive

CCCNC(C)C(=O)Nc1c(C)csc1C(=O)OC (stereo not given)
Potency [16]: inactive

O=C(O)COc1nn(Cc2ccccc2)c2ccccc12
Potency [17]: inactive | Potency [8]: inactive | Potency [12]: inconclusive: 15.1 µM [rising, partial curve, poor fit]

Nc1ccc(S(=O)(=O)Nc2ccnn2-c2ccccc2)cc1
Potency [6]: inactive | cytotoxicity increase [18]: inactive: 3.28% [at 15.8 µM] | Potency [19]: inactive | Potency [8]: inconclusive: 16.4 µM [activator, single point]

CC1=C(C(=O)O)N2C(=O)[C@@H](NC(=O)[C@H](N)c3ccccc3)[C@H]2SC1
Potency [16]: inactive

CN1C(=O)CC[C@H]1c1cccnc1
Potency [1]: inactive | Potency [12]: inactive

OCC(O)[C@@H](O)[C@H](O)[C@H](O)CO[C@H]1O[C@H](CO)[C@@H](O)[C@H](O)[C@H]1O (stereo not given in full)
Potency [14]: inactive | Potency [18]: inactive | Potency [11]: inactive

OCCOc1ccc(OCCO)cc1
activation [15]: inconclusive: -0.631% [at 81.1 µM] | Potency [11]: inactive

CC1CNCC(C)O1 (stereo not given)
Potency [20]: inactive

CCCCCCS
Potency [10]: inactive

COc1ccnc(CS(=O)c2nc3cc(OC(F)F)ccc3[nH]2)c1OC (stereo not given)
Potency [19]: inconclusive: 3.55 µM [activator, partial curve, poor fit]

CCCCCC(=O)OCC
Potency [15]: inactive

O=S(=O)(O)CCO
Potency [8]: active: 49.2 µM

CC/C=C(\C(=O)N[C@@H]1C(=O)N2C(C(=O)OCOC(=O)C(C)(C)C)=C(COC(N)=O)CS[C@H]12)c1csc(N)n1
Potency [6]: inactive | Potency [19]: inactive and inconclusive: 14.1 µM [activator, single point]

CO[C@@]1(NC(=O)CSC[C@@H](N)C(=O)O)C(=O)N2C(C(=O)O)=C(CSc3nnnn3C)CS[C@@H]21
Potency [1]: inactive | Potency [19]: inconclusive: 5.01 µM [activator, single point] | activity, negative = inhibition [5]: inconclusive: 1.48% [at 35.3 µM]

CC1CN(c2cc3c(cc2F)c(=O)c(C(=O)O)cn3-c2ccc(F)cc2F)CCN1 (stereo not given)
activity change [13]: inactive: -0.883% [at 6.97 µM, stronger effect = higher value] | activity change, negative = inhibition [3]: inactive: -6.71% [at 8.39 µM] | activation [12]: inactive: -2.82% [at 6.97 µM]

Nc1cc(C(Cl)=C(Cl)Cl)c(S(N)(=O)=O)cc1S(N)(=O)=O
Potency [19]: inconclusive: 5.01 µM [activator, single point]

OCC1(CO)COCOC1
Potency [16]: inactive | Potency [18]: inconclusive: 60.8 µM [activator, single point] | activity, negative = inhibition [5]: inconclusive: 13.5%

Cc1nc2n(c(=O)c1CCN1CCC(c3noc4cc(F)ccc34)CC1)CCC[C@H]2O
Potency [7]: inactive
